Data published in the supplement of paper PMC8728848.
Some of the results follow.

Assays:
Assay in all cases: glycan array binding signal (z-score within array); higher = stronger binding
Details in all cases: glycan notation: IUPAC condensed, linker removed
[1] = target: GlcNAc(b1-4)GlcNAc(b1-4)GlcNAc(b1-4)GlcNAc(b1-4)GlcNAc(b1-4)GlcNAc
In short: (§1)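 Negative Z-scores can be read as non-binding. The Z-score is calculated within each array and then averaged across arrays of one protein sequence at different concentrations or buffers and across linkers. Arrays, 3228 in all, were curated from the Consortium for Functional Glycomics database and kept only where the protein sequence was available.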

[2] = target: GlcNAc(b1-4)[GlcNAc(b1-6)]GalNAc
In short: as §1

[3] = target: GlcNAc(b1-6)Gal(b1-4)GlcNAc
In short: as §1

GlcNAc(b1-6)GalNAc = target: GlcNAc(b1-6)GalNAc
In short: as §1

[4] = target: GlcNAc6S(b1-3)Gal(b1-4)GlcNAc
In short: as §1

Kdn(a2-3)Gal(b1-3)GalNAc = target: Kdn(a2-3)Gal(b1-3)GalNAc
In short: as §1

Kdn(a2-3)Gal(b1-3)GlcNAc = target: Kdn(a2-3)Gal(b1-3)GlcNAc
In short: as §1

Kdn(a2-3)Gal(b1-4)Glc = target: Kdn(a2-3)Gal(b1-4)Glc
In short: as §1

Kdn(a2-3)Gal(b1-4)GlcNAc = target: Kdn(a2-3)Gal(b1-4)GlcNAc
In short: as §1

[5] = target: Kdn(a2-3)Gal(b1-4)[Fuc(a1-3)]GlcNAc
In short: as §1

Kdn(a2-6)Gal(b1-4)GlcNAc = target: Kdn(a2-6)Gal(b1-4)GlcNAc
In short: as §1

[6] = target: Man(a1-2)Man(a1-2)Man(a1-3)Man
In short: as §1

[7] = target: Man(a1-2)Man(a1-2)Man(a1-6)[Man(a1-3)]Man
In short: as §1

Man(a1-2)Man(a1-3)Man = target: Man(a1-2)Man(a1-3)Man
In short: as §1

[8] = target: Man(a1-2)Man(a1-3)[Man(a1-2)Man(a1-6)]Man
In short: as §1

[9] = target: Man(a1-2)Man(a1-3)[Man(a1-2)Man(a1-6)]Man(a1-6)[Man(a1-2)Man(a1-2)Man(a1-3)]Man
In short: as §1

[10] = target: Man(a1-2)Man(a1-3)[Man(a1-2)Man(a1-6)]Man(a1-6)[Man(a1-2)Man(a1-2)Man(a1-3)]Man(b1-4)GlcNAc(b1-4)GlcNAc
In short: as §1

[11] = target: Man(a1-2)Man(a1-3)[Man(a1-6)]Man(a1-6)[Man(a1-2)Man(a1-3)]Man(b1-4)GlcNAc(b1-4)GlcNAc
In short: as §1

[12] = target: Man(a1-2)Man(a1-6)[Man(a1-3)]Man(a1-6)[Man(a1-2)Man(a1-2)Man(a1-3)]Man
In short: as §1

[13] = target: Man(a1-2)Man(a1-6)[Man(a1-3)]Man(a1-6)[Man(a1-2)Man(a1-2)Man(a1-3)]Man(b1-4)GlcNAc(b1-4)GlcNAc
In short: as §1

Man(a1-3)[Man(a1-6)]Man = target: Man(a1-3)[Man(a1-6)]Man
In short: as §1

[14] = target: Man(a1-3)[Man(a1-6)]Man(a1-6)[Man(a1-2)Man(a1-3)]Man(b1-4)GlcNAc(b1-4)GlcNAc
In short: as §1

[15] = target: Man(a1-3)[Man(a1-6)]Man(a1-6)[Man(a1-3)]Man
In short: as §1

[16] = target: Man(a1-3)[Man(a1-6)]Man(a1-6)[Man(a1-3)]Man(b1-4)GlcNAc(b1-4)GlcNAc
In short: as §1

[17] = target: Man(a1-3)[Man(a1-6)]Man(b1-4)GlcNAc(b1-4)GlcNAc
In short: as §1

[18] = target: Man(a1-3)[Man(a1-6)]Man(b1-4)GlcNAc(b1-4)[Fuc(a1-6)]GlcNAc
In short: as §1

Man(a1-6)Man = target: Man(a1-6)Man
In short: as §1

Man(b1-4)GlcNAc = target: Man(b1-4)GlcNAc
In short: as §1

MurNAc(b1-4)GlcNAc = target: MurNAc(b1-4)GlcNAc
In short: as §1

Neu5Ac(a2-3)Gal = target: Neu5Ac(a2-3)Gal
In short: as §1

[19] = target: Neu5Ac(a2-3)Gal(b1-3)GalNAc
In short: as §1

[20] = target: Neu5Ac(a2-3)Gal(b1-3)GalNAc(b1-3)Gal(a1-4)Gal(b1-4)Glc
In short: as §1

[21] = target: Neu5Ac(a2-3)Gal(b1-3)GalNAc(b1-4)[Neu5Ac(a2-3)]Gal(b1-4)Glc
In short: as §1

[22] = target: Neu5Ac(a2-3)Gal(b1-3)GalNAc(b1-4)[Neu5Ac(a2-8)Neu5Ac(a2-3)]Gal(b1-4)Glc
In short: as §1

[23] = target: Neu5Ac(a2-3)Gal(b1-3)GalNAc6S
In short: as §1

[24] = target: Neu5Ac(a2-3)Gal(b1-3)GlcNAc
In short: as §1

[25] = target: Neu5Ac(a2-3)Gal(b1-3)GlcNAc(b1-2)Man
In short: as §1

[26] = target: Neu5Ac(a2-3)Gal(b1-3)GlcNAc(b1-2)Man(a1-3)[GlcNAc(b1-4)][Neu5Ac(a2-3)Gal(b1-3)GlcNAc(b1-2)Man(a1-6)]Man(b1-4)GlcNAc(b1-4)GlcNAc
In short: as §1

[27] = target: Neu5Ac(a2-3)Gal(b1-3)GlcNAc(b1-2)Man(a1-3)[Neu5Ac(a2-3)Gal(b1-3)GlcNAc(b1-2)Man(a1-6)]Man(b1-4)GlcNAc(b1-4)GlcNAc
In short: as §1

[28] = target: Neu5Ac(a2-3)Gal(b1-3)GlcNAc(b1-3)Gal(b1-3)GlcNAc
In short: as §1

[29] = target: Neu5Ac(a2-3)Gal(b1-3)GlcNAc(b1-3)Gal(b1-4)GlcNAc
In short: as §1

[30] = target: Neu5Ac(a2-3)Gal(b1-3)GlcNAc(b1-3)GalNAc
In short: as §1

[31] = target: Neu5Ac(a2-3)Gal(b1-3)GlcNAc(b1-4)Gal(b1-4)Glc
In short: as §1

[32] = target: Neu5Ac(a2-3)Gal(b1-3)GlcNAc(b1-6)GalNAc
In short: as §1

[33] = target: Neu5Ac(a2-3)Gal(b1-3)GlcNAc6S
In short: as §1

B1: Langerin K313I (Homo sapiens), Q9UJ71 (protein)
chain: STLNAQIPELKSDLEKASALNTKIRALQGSLENMSKLLKRQNDILQVVSQGWKYFKGNFYYFSLIPKTWYSAEQFCVSRNSHLTSVTSESEQEFLYKTAGGLIYWIGLTKAGMEGDWSWVDDTPFNKVQSARFWIPGEPNNAGNNEHCGNIKAPSLQAWNDAPCDITFLFICKRPYVPSEP
In the case of B1, the “glycan array binding signal (z-score)” value [1] is reported as -0.281, the “glycan array binding signal (z-score)” value [2] is reported as 0.45 and the “glycan array binding signal (z-score)” value [3] is reported as -0.119. The “glycan array binding signal (z-score)” value (GlcNAc(b1-6)GalNAc) was -0.215, the “glycan array binding signal (z-score)” value [4] was -0.216 and the “glycan array binding signal (z-score)” value (Kdn(a2-3)Gal(b1-3)GalNAc) was 0.361. For the same binder, the “glycan array binding signal (z-score)” value (Kdn(a2-3)Gal(b1-3)GlcNAc) was -0.216, the “glycan array binding signal (z-score)” value (Kdn(a2-3)Gal(b1-4)Glc) was -0.251 and the “glycan array binding signal (z-score)” value (Kdn(a2-3)Gal(b1-4)GlcNAc) was -0.205. The “glycan array binding signal (z-score)” value [5] was 0.563, the “glycan array binding signal (z-score)” value (Kdn(a2-6)Gal(b1-4)GlcNAc) was -0.33 and the “glycan array binding signal (z-score)” value [6] was -0.234. For the same binder, the “glycan array binding signal (z-score)” value [7] was 7.95, the “glycan array binding signal (z-score)” value (Man(a1-2)Man(a1-3)Man) was -0.261 and the “glycan array binding signal (z-score)” value [8] was -0.303. For the same binder, the “glycan array binding signal (z-score)” value [9] was 3.54, the “glycan array binding signal (z-score)” value [10] was -0.289 and the “glycan array binding signal (z-score)” value [11] was -0.194. For the same binder, the “glycan array binding signal (z-score)” value [12] was 2.17, the “glycan array binding signal (z-score)” value [13] was 0.146 and the “glycan array binding signal (z-score)” value (Man(a1-3)[Man(a1-6)]Man) was -0.094. The “glycan array binding signal (z-score)” value [14] was -0.188, the “glycan array binding signal (z-score)” value [15] was -0.173 and the “glycan array binding signal (z-score)” value [16] was -0.155. The “glycan array binding signal (z-score)” value [17] was -0.323, the “glycan array binding signal (z-score)” value [18] was -0.036 and the “glycan array binding signal (z-score)” value (Man(a1-6)Man) was -0.121. For the same binder, the “glycan array binding signal (z-score)” value (Man(b1-4)GlcNAc) was -0.24, the “glycan array binding signal (z-score)” value (MurNAc(b1-4)GlcNAc) was -0.377 and the “glycan array binding signal (z-score)” value (Neu5Ac(a2-3)Gal) was -0.302. The “glycan array binding signal (z-score)” value [19] was -0.279, the “glycan array binding signal (z-score)” value [20] was -0.307 and the “glycan array binding signal (z-score)” value [21] was -0.29. The “glycan array binding signal (z-score)” value [22] was -0.134, the “glycan array binding signal (z-score)” value [23] was -0.352 and the “glycan array binding signal (z-score)” value [24] was -0.339. The “glycan array binding signal (z-score)” value [25] was 0.248, the “glycan array binding signal (z-score)” value [26] was -0.131 and the “glycan array binding signal (z-score)” value [27] was 0.123. For the same binder, the “glycan array binding signal (z-score)” value [28] was -0.309, the “glycan array binding signal (z-score)” value [29] was -0.387 and the “glycan array binding signal (z-score)” value [30] was -0.261. The “glycan array binding signal (z-score)” value [31] was -0.191, the “glycan array binding signal (z-score)” value [32] was 0.005 and the “glycan array binding signal (z-score)” value [33] was -0.361.
